Measured values reported in publication PMC11747885, “Potent inhibitors of the human RNA ligase Rlig1 highlights its role in RNA integrity maintenance under oxidative cellular stress” (Chemical Science, 2025).
Several values for one entry are separate records, joined by “and”; a condition that tells them apart may be missing. Equal entries are not always repeated.

System: HEK293 cells
Assay: Cell viability assay of HEK293 cells treated with inhibitors (CellTiter-Glo)

**Q.** What does the source list for `Nc1nccc(Nc2ccc(NC(=O)c3ccc(Nc4ccnc5ccccc45)cc3)cc2)n1` [Compound 26]?
**A.** cytotoxicity (in words) (HEK293, 24 h, up to 30 μM): moderate cytotoxicity; EC50 (HEK293, 24 h compound, highest concentration 30 μM, n = 3): 30.5 µM; IC50 (Figure 3D: EC50 values for plot; log(inhibitor) vs. response -- Variable slope (four parameters)) (HEK293 cell viability, fit per plate (3 plates, 4 technical replicates each), highest tested concentration 30 µM): 28.7087 µM and 33.416 µM and 29.6362 µM; LogIC50 (log(inhibitor) vs. response -- Variable slope (four parameters)) (HEK293 cell viability, fit per plate (3 plates, 4 technical replicates each), log of [µM]): 1.458 and 1.524 and 1.472
